# Experimental data taken from patent US20150272935A1, “Use of a Factor Xa Inhibitor for Treating and Preventing Bleeding Events And Related Disorders in Patients Having Sensitivity to Vitamin K Antagonists Used As Anticoagulants” (priority 2014, published 2015).
# Legend:
# [1] = test system: patients with atrial fibrillation (AF); assay: ENGAGE AF-TIMI 48 genetic analysis: safety (bleeding) outcomes by genotype bin; conditions: for HR for bleeding: first 90 days; for HR (95% CI) for any overt bleeding: trial overall
# Experimental: The pre-specified genetic analysis included 14,348 participants, who were genotyped for functional genetic variants in CYP2C9 and VKORC1. The relationships among genotype, pharmacologic response, and clinical outcomes during oral anticoagulant therapy were tested.
# The INR values were measured using an encrypted point-of-care device.
# During follow-up, safety and efficacy were recorded. A clinical endpoint committee, unaware of study treatment, adjudicated all deaths and suspected cases of bleeding, cerebrovascular events, systemic embolic event (SEE), and myocardial infarction (MI). Any overt bleeding was defined as ISTH major, clinically relevant non-major, and minor bleeding.
# For bleeding events, a “major bleeding event” is defined as a clinically overt bleeding event (i.e., bleeding that is visualized by examination or radiologic imaging) that meets ≧1 of the following: 1. fatal bleeding; 2. Symptomatic bleeding in a critical area or organ, such as retroperitoneal, intracranial, intraocular, intraspinal, intraarticular, pericardial, or intramuscular with compartment syndrome; 3. […] Each 1 unit of packed red blood cell or whole blood is counted as a 1.0-g/dL decrease in hemoglobin. In the case of surgical procedural-related bleeding, the bleeding must be in excess of that normally associated with the surgery/procedure. In the absence of hemoglobin data, a fall of hematocrit of ≧6.0%, adjusted for transfusion, will satisfy the criteria for a major bleeding event.
# Major bleeding events may also be further sub-classified as life threatening or non-life threatening. A “life-threatening major bleed” is defined as a bleeding event that either is intracranial or is associated with hemodynamic compromise requiring intervention. A “clinically relevant nonmajor bleeding event” is defined as a clinically overt bleeding event that requires medical attention.
# All other events (e.g., decline in hemoglobin with no overt bleeding event) were classified as “no bleeding events.”
# (http//www.accessdata.fda.gov/drugsatfda_docs/label/2010/009218s1081b1.pdf).
# Cox proportional hazards models were used to compare the bleeding and efficacy outcomes among patients using the normal responders as the referent group. Any overt bleeding was evaluated with subcategories of bleeding tested for directional consistency based on hazard ratios and 95% confidence intervals. Efficacy analyses included ischemic stroke and SEE, in addition to mortality.
# Analyses were conducted among randomized patients with a genetic sample (N=14,348) who received at least one dose of study drug and incorporated an “on-treatment” period, defined as the time between first study-drug dose and the earlier of three days post last dose or end of the treatment period. In a sensitivity analysis, safety and efficacy analyses were adjusted for covariates that differed across genotype bins (race, region, creatinine clearance, and weight) and previous exposure to a VKA.
# [2] = test system: patients with atrial fibrillation (AF); conditions: edoxaban treated subjects
# [3] = 0-90 Days, Normal Responder, Edoxaban High Dose vs. Warfarin
# [4] = 0-90 Days, Normal Responder, Edoxaban Low Dose vs. Warfarin
# [5] = Beyond 90 Days, Highly Sensitive, Edoxaban High Dose
# [6] = Beyond 90 Days, Highly Sensitive, Edoxaban Low Dose
# [7] = Beyond 90 Days, Highly Sensitive, Edoxaban Low Dose vs. Warfarin
# [8] = Beyond 90 Days, Normal Responder, Edoxaban High Dose
# [9] = Beyond 90 Days, Normal Responder, Edoxaban High Dose vs. Warfarin
# [10] = Beyond 90 Days, Normal Responder, Edoxaban Low Dose
# [11] = Beyond 90 Days, Normal Responder, Edoxaban Low Dose vs. Warfarin
# [12] = Beyond 90 Days, Sensitive, Edoxaban High Dose
# [13] = Beyond 90 Days, Sensitive, Edoxaban High Dose vs. Warfarin
# [14] = Beyond 90 Days, Sensitive, Edoxaban Low Dose
# [15] = Beyond 90 Days, Sensitive, Edoxaban Low Dose vs. Warfarin
compound,measurement,setting,value
CN1CCc2nc(C(=O)N[C@@H]3C[C@@H](C(=O)N(C)C)CC[C@@H]3NC(=O)C(=O)Nc3ccc(Cl)cn3)sc2C1.Cc1ccc(S(=O)(=O)O)cc1 [Edoxaban],"Intracranial Bleed, HR (95% CI)",[1]; [3],0.70 (0.20-2.50)
same,"Life-Threatening Bleed, HR (95% CI)",[1]; [3],0.90 (0.30-2.68)
same,"Intracranial Bleed, HR (95% CI)",[1]; [4],0.67 (0.19-2.39)
same,"Life-Threatening Bleed, HR (95% CI)",[1]; [4],0.72 (0.23-2.28)
same,"Life-Threatening Bleed, HR (95% CI)","[1]; 0-90 Days, Sensitive, Edoxaban High Dose vs. Warfarin",0.35 (0.04-3.32)
same,"Intracranial Bleed, HR (95% CI)","[1]; 0-90 Days, Sensitive, Edoxaban Low Dose vs. Warfarin",0.26 (0.03-2.30)
same,"Intracranial Bleed, Event Rates",[1]; [5],0.0 %/year
same,"Life-Threatening Bleed, Event Rates",[1]; [5],0.3 %/year
same,"Life-Threatening Bleed, HR (95% CI)","[1]; Beyond 90 Days, Highly Sensitive, Edoxaban High Dose vs. Warfarin",0.27 (0.03-2.51)
same,"Intracranial Bleed, Event Rates",[1]; [6],0.3 %/year
same,"Life-Threatening Bleed, Event Rates",[1]; [6],0.5 %/year
same,"Intracranial Bleed, HR (95% CI)",[1]; [7],0.33 (0.03-3.48)
same,"Life-Threatening Bleed, HR (95% CI)",[1]; [7],0.48 (0.08-2.86)
same,"Intracranial Bleed, Event Rates",[1]; [8],0.4 %/year
same,"Life-Threatening Bleed, Event Rates",[1]; [8],0.4 %/year
same,"Intracranial Bleed, HR (95% CI)",[1]; [9],0.75 (0.45-1.25)
same,"Life-Threatening Bleed, HR (95% CI)",[1]; [9],1.04 (0.61-1.77)
same,"Intracranial Bleed, Event Rates",[1]; [10],0.2 %/year
same,"Life-Threatening Bleed, Event Rates",[1]; [10],0.2 %/year
same,"Intracranial Bleed, HR (95% CI)",[1]; [11],0.27 (0.14-0.55)
same,"Life-Threatening Bleed, HR (95% CI)",[1]; [11],0.40 (0.20-0.81)
same,"Intracranial Bleed, Event Rates",[1]; [12],0.2 %/year
same,"Life-Threatening Bleed, Event Rates",[1]; [12],0.3 %/year
same,"Intracranial Bleed, HR (95% CI)",[1]; [13],0.33 (0.15-0.72)
same,"Life-Threatening Bleed, HR (95% CI)",[1]; [13],0.31 (0.15-0.63)
same,"Intracranial Bleed, Event Rates",[1]; [14],0.2 %/year
same,"Life-Threatening Bleed, Event Rates",[1]; [14],0.2 %/year
same,"Intracranial Bleed, HR (95% CI)",[1]; [15],0.27 (0.12-0.62)
same,"Life-Threatening Bleed, HR (95% CI)",[1]; [15],0.24 (0.11-0.51)
same,interaction between genotype and bleeding with edoxaban versus warfarin,[1]; beyond 90 days,no significant interaction
same,overall HR for bleeding,"[1]; beyond 90 days, high-dose edoxaban versus warfarin",0.88 (95% CI 0.81-0.95)
same,overall HR for bleeding,"[1]; beyond 90 days, low-dose edoxaban versus warfarin",0.69 (95% CI 0.63-0.75)
same,HR for bleeding,"[1]; edoxaban high-dose vs. warfarin, highly sensitive responders",0.45 (0.22-0.90)
same,HR for bleeding,"[1]; edoxaban high-dose vs. warfarin, normal responders",1.13 (0.92-1.39)
same,HR for bleeding,"[1]; edoxaban high-dose vs. warfarin, sensitive responders",0.77 (0.59-1.00)
same,HR for bleeding,"[1]; edoxaban low-dose versus warfarin, highly sensitive responders",0.21 (0.09-0.53)
same,HR for bleeding,"[1]; edoxaban low-dose versus warfarin, normal responders",0.83 (0.67-1.04)
same,HR for bleeding,"[1]; edoxaban low-dose versus warfarin, sensitive responders",0.58 (0.43-0.76)
same,major bleeding or CRNM bleeding events,"[1]; medium and high responders to warfarin sensitivity, 30 mg per day or 60 mg per day, 90 day time period",did not experience major bleeding or CRNM bleeding events
same,effect of CYP2C9 and VKORC1 variants on bleeding,[1]; subjects with AF treated with edoxaban,no effect
same,HR (95% CI) for any overt bleeding,[1]; high-dose edoxaban vs. warfarin,0.87 (95% CI 0.82-0.92)
same,HR (95% CI) for any overt bleeding,[1]; low-dose edoxaban vs. warfarin,0.66 (95% CI 0.62-0.71)
same,"impact of VKORC1 genotype on pharmacodynamic response (PT, anti-FXa activity, D-dimer)",[2],no impact
